# Out of some 270,000 compounds screened, about 620 (0.23%) were called active. This list was built around the results that the source calls inconclusive (neither active nor inactive); the mix of calls is not that of the screen. Calls follow the shape of the dose curve; as a rule, active = well fitted inhibition curve with a large enough effect in the polarisation, with a control signal flat (not every such curve was filed as active); inconclusive = small, poorly fitted or top-dose-only effect, or effect the other way, or a change in a side signal; inactive = no such curve, though single readings can be large or run the other way; the % refers to the polarisation. Potencies of inconclusive entries are doubtful fits and often do not repeat. A note “side channel” means that the fit belongs to a control or component signal, not to the main read-out.
# Target: Menin (Homo sapiens) (UniProt O00255)
# Test: qHTS Assay for Inhibitors Targeting the Menin-MLL Interaction in MLL Related Leukemias: Competition With Texas Red Labeled MLL-derived Mutant Peptide; as to FP activity change, negative = inhibition: % of control where 0% means no effect
# Details: fluorescence polarization; FP activity change, negative = inhibition: at 61.6 µM (top of the series)
# Potency is read from the fitted curve at half-maximal effect; tags tell the direction and shape of the fitted curve or compound fluorescence and quenching.
# Sequence of UniProt O00255 (O00255 whole entry, looked up): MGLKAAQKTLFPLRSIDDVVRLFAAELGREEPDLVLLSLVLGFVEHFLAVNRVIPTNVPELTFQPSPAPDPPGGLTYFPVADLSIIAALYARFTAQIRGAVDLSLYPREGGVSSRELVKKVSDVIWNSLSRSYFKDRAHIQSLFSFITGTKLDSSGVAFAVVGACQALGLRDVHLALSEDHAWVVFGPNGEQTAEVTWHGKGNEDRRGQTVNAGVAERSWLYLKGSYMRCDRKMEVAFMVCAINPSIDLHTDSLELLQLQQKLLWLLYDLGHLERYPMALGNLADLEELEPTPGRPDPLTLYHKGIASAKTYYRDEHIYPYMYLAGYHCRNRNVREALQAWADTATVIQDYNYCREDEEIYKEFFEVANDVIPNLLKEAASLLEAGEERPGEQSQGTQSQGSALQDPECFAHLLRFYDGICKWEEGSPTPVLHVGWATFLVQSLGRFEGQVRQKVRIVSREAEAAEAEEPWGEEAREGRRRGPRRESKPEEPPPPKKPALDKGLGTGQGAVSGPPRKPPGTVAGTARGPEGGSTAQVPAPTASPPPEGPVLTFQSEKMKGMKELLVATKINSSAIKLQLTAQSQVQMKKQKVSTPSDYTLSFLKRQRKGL
SMILES,Potency,"FP activity change, negative = inhibition"
COC(=O)c1ccccc1NC(=O)Nc1cccs1,"inconclusive: 35.5 µM [quencher, side channel, single point]",–
COc1ccc(OC)c(NC(=O)c2ccc(-c3cccs3)cc2)c1,"inconclusive: 28.2 µM [quencher, side channel, partial curve]",–
CC(C)(C)C1CCC(OC(=O)C[N+]2(C)CCCCC2)CC1 (centres undefined),–,inactive: -16.9%
Clc1ccc(Nc2ncnc3c2cnn3-c2ccccc2)cc1,"inconclusive: 25.1 µM [quencher, side channel, partial curve]",–
CN1/C(=C/c2cc[n+](C)c3ccccc23)C=Cc2ccccc21,"inconclusive: 22.4 µM [fluorescent, side channel, partial curve]",–
COc1ccccc1N1CCN(C(=O)c2sc3nc(C)nc(N4CCN(c5ccccn5)CC4)c3c2C)CC1,"inconclusive: 2.24 µM [fluorescent, side channel, full curve]",–
OC1(c2ccc(Cl)cc2)CN(c2ccccc2)C2=[N+]1CCS2 (centres undefined),"inconclusive: 39.8 µM [quencher, side channel, single point]",–
CCOc1ccc(N=Nc2ccc(N)cc2N)cc1,"inconclusive: 25.1 µM [quencher, side channel, partial curve]",–
COc1ccccc1Nc1ncc(C(=O)Nc2ccc(OC)c(OC)c2)c2ccccc12,"inconclusive: 31.6 µM [quencher, side channel, single point]",–
O=C1c2ccccc2C(=Nc2ccccc2)C1c1cccc(Br)c1 (centres undefined),"inconclusive: 11.2 µM [quencher, side channel, partial curve]",–
CCCCC(=O)NNC(=S)NC(=O)C(c1ccccc1)c1ccccc1,"inconclusive: 14.1 µM [quencher, side channel, partial curve]",–
CCOC(=O)/C(C#N)=C/c1ccc(OCC(=O)Nc2cc(C)ccc2C)c(OC)c1,"inconclusive: 39.8 µM [inhibitor, single point]",–
COc1ccc(CNC(=O)CSc2ccsc2[N+](=O)[O-])cc1,"inconclusive: 35.5 µM [quencher, side channel, single point]",–
COc1ccc(OC)c(C2=Nn3c(nnc3-c3ccccc3O)SC2)c1,"inconclusive: 17.8 µM [quencher, side channel, partial curve]",–
Cc1ccc(NC(=S)N(Cc2ccc(Br)cc2)Cc2ccc(C(=O)O)cc2)cc1C,"inconclusive: 15.8 µM [quencher, side channel, partial curve]",–
O=C(N/N=C/c1ccc(O)cc1)c1[nH]c2ccc(Br)cc2c1-c1ccccc1,"inconclusive: 22.4 µM [quencher, side channel, single point]",–
COCCNCCCCOc1c(Cl)cc(C)cc1Br,"inconclusive: 31.6 µM [inhibitor, single point]",–
CCOC(=O)N1CCC(NC(=O)c2cc(COc3ccc(F)cc3Cl)on2)CC1,"inconclusive: 20 µM [fluorescent, side channel, single point]",–
CCCOc1ccc(Cc2nn3c(=O)/c(=C/c4ccco4)sc3nc2=O)cc1,"inconclusive: 31.6 µM [quencher, side channel, single point]",–
CCc1cc(C(N)=O)c(NC(=O)c2ccc(OC)cc2)s1,"inconclusive: 12.6 µM [quencher, side channel, partial curve]",–

SMILES,Potency,"FP activity change, negative = inhibition"
COc1ccc(C(=NNc2ccccc2C(=O)O)c2ccc(OC)cc2)cc1,"inconclusive: 15.8 µM [quencher, side channel, partial curve]",–
COc1ccccc1C1CN(c2ccccc2)N=C1c1cccs1 (centres undefined),"inconclusive: 11.2 µM [quencher, side channel, partial curve]",–
CN(Cc1c(C(=O)N/N=C/c2ccc(O)cc2)nnn1-c1nonc1N)C1CCCCC1,"inconclusive: 39.8 µM [fluorescent, side channel, single point]",–
COC(=O)C1=C(C)C(c2ccc(OC)cc2OC)NC(=O)N1 (centres undefined),–,inactive: -0.389%
O=C(Nc1ccc2ccccc2c1)c1ccccc1O,"inconclusive: 0.631 µM [quencher, side channel, full curve, poor fit]",–
CC(=O)c1ccc(NC(=O)Nc2ccc3c(c2)N(C)C(=O)CS3)cc1,"inconclusive: 14.1 µM [quencher, side channel, partial curve]",–
CC[n+]1c(/C=C/c2c[nH]c3ccccc23)ccc2cc(C)ccc21,"inconclusive: 15.8 µM [fluorescent, side channel, partial curve]",–
Cc1cc(C)c(Cn2c3ccccc3c3cnn(CC(=O)NCCN4CCOCC4)c(=O)c32)c(C)c1,"inconclusive: 35.5 µM [fluorescent, side channel, partial curve]",–
CCOC(=O)N=Nc1c2ccccc2c2nc3no[nH]c3nc12,"inconclusive: 20 µM [quencher, side channel, partial curve]",–
COC(=O)C1=C(C)N=C2SC(C#N)=C(N)N2C1c1ccc(OCc2ccccc2)cc1 (centres undefined),"inconclusive: 11.2 µM [quencher, side channel, partial curve, poor fit]",–
Cc1cc(NC(=O)CSc2ncnc3c2cnn3-c2ccccc2)no1,"inconclusive: 12.6 µM [fluorescent, side channel, partial curve]",–
CC(=O)Oc1cc(C)c(OC(C)=O)c2ccccc12,–,inactive: 1.23%
CCSc1nnc(NC(=O)NC2CCCCC2)s1,"inconclusive: 2 µM [inhibitor, partial curve]",–
COc1cccc(C(C(=O)NC2CCCC2)N(CC2CCCO2)C(=O)Cc2cccs2)c1 (centres undefined),"inconclusive: 3.16 µM [fluorescent, side channel, partial curve]",–
CS(=O)(=O)N1CCN(C2C3CC4CC(C3)CC2C4)CC1 (centres undefined),–,inactive: -26%
CC(C)NS(=O)(=O)c1cc(F)ccc1CN1C(=O)c2cccnc2C1=O,"inconclusive: 17.8 µM [fluorescent, side channel, partial curve]",–
CCn1c(SCc2cccc(C)c2)nnc1-c1ccccc1,"inconclusive: 8.91 µM [inhibitor, partial curve, poor fit]",–
CCS(=O)(=O)c1ccc2c(c1)N(S(C)(=O)=O)CC(C(=O)NCc1ccccc1OC)O2 (centres undefined),"inconclusive: 28.2 µM [fluorescent, side channel, single point]",–
O=C(Nc1ccccc1C(=O)Nc1ccccc1C(=O)O)c1ccccc1,"inconclusive: 10 µM [quencher, side channel, partial curve]",–
CCOC(=O)c1ccc(NC(=O)CSc2nc(SC)ns2)cc1,"inconclusive: 14.1 µM [quencher, side channel, partial curve]",–

SMILES,Potency,"FP activity change, negative = inhibition"
COc1ccc(Nc2nc(-c3ccccc3)nc3ccccc23)cc1,"inconclusive: 2 µM [quencher, side channel, full curve]",–
Cc1nc2ccccc2c(=O)n1/N=C/c1c(O)ccc2ccccc12,"inconclusive: 25.1 µM [quencher, side channel, single point]",–
CCN1C(=S)SC(=O)C1=C1C=C(C)N(CCO)C(C)=C1,–,inactive: 1.45%
Cc1cc(C)n(CC(=O)O)n1,–,inactive: -6.61%
Cc1cc(C)cc(C(=O)N(C)C2CCCN(Cc3ccccc3F)C2)c1 (centres undefined),"inconclusive: 8.91 µM [fluorescent, side channel, full curve, poor fit]",–
CCCN1CCC(CCOc2ccccc2)(C(=O)OCC)CC1,–,inactive: -5.75%
COc1cc(C(=O)Nc2nnc(-c3sccc3C)s2)cc(OC)c1OC,"inconclusive: 28.2 µM [quencher, side channel, single point]",–
CCOC(=O)CN=C1CC(C)(C)CC2=C1Sc1ncnc(N(C)C)c1N2,"inconclusive: 35.5 µM [inhibitor, single point]",–
COc1ccc2c(-c3ccccc3)cc(SC(C)C(N)=O)nc2c1 (centres undefined),–,inactive: 18.6%
O=C(CN1CCN(C2CCCCC2)CC1)Nc1ccccc1N1CCCCC1,"inconclusive: 39.8 µM [inhibitor, single point]",–
Cc1ccc(NC(=S)/N=C(\N)Nc2nc(C)c3ccccc3n2)cc1C,"inconclusive: 14.1 µM [inhibitor, partial curve]",–
O=S1(=O)N=C(N(CCO)/N=C/c2ccc(Cl)cc2)c2ccccc21,"inconclusive: 39.8 µM [fluorescent, side channel, single point]",–
Clc1ccc2nc(CSCc3ccccc3)cn2c1,"inconclusive: 31.6 µM [inhibitor, single point]",–
NC(=O)Nc1sc(-c2ccc(F)cc2)cc1C(N)=O,"inconclusive: 15.8 µM [quencher, side channel, partial curve]",–
O=C(NC(=S)Nc1ccc(N2CCCC2)cc1)c1ccc(F)cc1,"inconclusive: 25.1 µM [quencher, side channel, partial curve]",–
Cc1nc(NC(=O)c2ccccc2)sc1-c1csc(Nc2ccc(Cl)cc2)n1,"inconclusive: 3.55 µM [quencher, side channel, full curve]",–
CCN(CC)c1ccc(NC(=O)Nc2ccccc2C(F)(F)F)cc1,"inconclusive: 8.91 µM [quencher, side channel, single point]",–
COC(=O)N/N=C\C=C\c1ccc2c(c1)OCO2,–,inactive: -29.9%
O=C(Nc1ccc(C(=O)NN2C(=O)c3ccccc3C2=O)cc1)c1ccccc1,"inconclusive: 31.6 µM [fluorescent, side channel, single point]",–
